Reference: PubChem BioAssay (NCI)
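In this assay, cells in 96-well plates receive the compound at five concentrations for 48 hours. Endpoints are linearly interpolated between the surrounding concentrations. Abbreviation: GI50, concentration required for 50% inhibition of growth. The concentration for full growth arrest is given as TGI.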

Tested on: NCI-H322M lung
Test: inhibition of tumour cell growth, NCI panel, 48 h

Going from `CCN(CC)c1ccc(/C=N/NC(=O)c2ccc(S(N)(=O)=O)cc2)c(O)c1` to `CCCn1cnc2c(c1=N)C(c1ccc(F)cc1)c1sc3c(CC)cccc3c1O2` (stereo not given), the GI50 rises from 0.242 µM to 0.779 µM (3.2-fold).

Going from `CCN1C(=O)N(CC)C2SC(N/N=C/C=C/c3ccccc3OC)=NC21` (stereo not given) to `C#CC(=O)N(c1ccc(OC)cc1OC)C(C(=O)NCC(=O)OCC)c1cccs1` (stereo not given), the GI50 rises from 1.15 µM to 14.5 µM (13-fold).

`CNC(=O)c1cc(Oc2ccc3nc(NC(=O)c4ccc(CN5CCCN(C)CC5)c(C(F)(F)F)c4)sc3c2)ccn1` was tested, and the GI50 was 1.65 µM.

Going from `CCN(CC)c1ccc(/C=N/NC(=O)c2ccc(S(N)(=O)=O)cc2)c(O)c1` to `CCCn1cnc2c(c1=N)C(c1ccc(F)cc1)c1sc3c(CC)cccc3c1O2` (stereo not given), the TGI rises from 35.6 µM to over 100 µM.

Compared with `CCN1C(=O)N(CC)C2SC(N/N=C/C=C/c3ccccc3OC)=NC21` (stereo not given), `C#CC(=O)N(c1ccc(OC)cc1OC)C(C(=O)NCC(=O)OCC)c1cccs1` (stereo not given) is lower in TGI: over 100 µM for the first, 28.6 µM for the second.

Work on `CNC(=O)c1cc(Oc2ccc3nc(NC(=O)c4ccc(CN5CCCN(C)CC5)c(C(F)(F)F)c4)sc3c2)ccn1` yielded a TGI of 3.09 µM.
